From patent publication US10792371B2, “c-Met targeting compound-bioactive material conjugate and use thereof” (Samsung Electronics Co., Ltd., priority 2013, dated 2020) come the findings set out here.

Details in all cases: rank among the four antibodies selected in Reference Example 1.7
Test [1] deals with Akt phosphorylation. As to the kind of experiment: Akt phosphorylation by affinity-matured antibodies. The format is cell-based.
Test [2] has as its target T1, c-Met (Homo sapiens, UniProt P08581). As to the kind of experiment: c-Met degradation degree of affinity-matured antibodies. The test is classed as cell-based.
For test [3], the target named is T1, c-Met. As to the kind of experiment: Affinity for c-Met of affinity-matured antibodies. The test is classed as binding.

T1 sequence (P08581 25-1390): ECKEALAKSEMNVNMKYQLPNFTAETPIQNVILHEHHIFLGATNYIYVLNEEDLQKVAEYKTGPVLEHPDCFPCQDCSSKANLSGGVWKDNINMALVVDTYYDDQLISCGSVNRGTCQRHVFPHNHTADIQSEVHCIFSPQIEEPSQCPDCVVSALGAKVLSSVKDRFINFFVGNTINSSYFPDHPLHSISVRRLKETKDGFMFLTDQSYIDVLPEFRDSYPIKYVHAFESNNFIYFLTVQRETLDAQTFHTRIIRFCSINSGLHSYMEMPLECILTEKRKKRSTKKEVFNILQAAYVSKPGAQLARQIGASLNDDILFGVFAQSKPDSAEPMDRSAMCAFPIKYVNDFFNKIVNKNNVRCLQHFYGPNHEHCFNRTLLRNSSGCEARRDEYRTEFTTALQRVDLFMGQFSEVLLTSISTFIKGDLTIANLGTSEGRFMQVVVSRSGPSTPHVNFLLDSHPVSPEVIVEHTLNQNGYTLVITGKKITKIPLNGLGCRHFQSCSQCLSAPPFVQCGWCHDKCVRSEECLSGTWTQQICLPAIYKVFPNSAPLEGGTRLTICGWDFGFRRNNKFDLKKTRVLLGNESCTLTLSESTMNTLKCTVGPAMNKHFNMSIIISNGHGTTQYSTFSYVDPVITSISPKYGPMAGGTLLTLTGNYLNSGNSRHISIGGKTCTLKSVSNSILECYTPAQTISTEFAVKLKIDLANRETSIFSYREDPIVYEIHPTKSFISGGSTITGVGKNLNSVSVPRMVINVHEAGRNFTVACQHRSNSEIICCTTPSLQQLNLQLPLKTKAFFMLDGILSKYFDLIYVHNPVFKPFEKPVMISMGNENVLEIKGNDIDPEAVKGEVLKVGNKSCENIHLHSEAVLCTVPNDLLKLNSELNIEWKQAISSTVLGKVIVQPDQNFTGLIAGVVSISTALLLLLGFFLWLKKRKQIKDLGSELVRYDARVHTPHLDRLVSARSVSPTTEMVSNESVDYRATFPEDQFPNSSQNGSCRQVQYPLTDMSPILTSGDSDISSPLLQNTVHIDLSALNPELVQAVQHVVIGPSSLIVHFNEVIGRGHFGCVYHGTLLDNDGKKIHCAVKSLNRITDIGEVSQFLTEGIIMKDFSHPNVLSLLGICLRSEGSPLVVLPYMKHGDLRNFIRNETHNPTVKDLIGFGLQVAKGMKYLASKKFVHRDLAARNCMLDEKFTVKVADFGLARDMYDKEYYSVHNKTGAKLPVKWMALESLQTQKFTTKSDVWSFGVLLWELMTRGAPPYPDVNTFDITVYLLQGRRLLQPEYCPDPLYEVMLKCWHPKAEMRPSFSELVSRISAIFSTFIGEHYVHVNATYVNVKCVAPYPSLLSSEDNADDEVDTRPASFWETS

B1: huAbF46-H4-A1: affinity-matured humanized anti-c-Met antibody, L3-1 origin (CDR-L3 SEQ ID NO: 13) (antibody)
heavy: EVQLVESGGGLVQPGGSLRLSCAASGFTFTDYYMSWVRQAPGKGLEWLGFIRNKANGYTTEYSASVKGRFTISRDNSKNTLYLQMNSLRAEDTAVYYCARDNWFAYWGQGTLVTVSSASTKGPSVFPLAPSSKSTSGGTAALGCLVKDYFPEPVTVSWNSGALTSGVHTFPAVLQSSGLYSLSSVVTVPSSSLGTQTYICNVNHKPSNTKVDKKVEPKSCDCH[skipping human IgG1 Fc]
light: DIQMTQSPSSLSASVGDRVTITCKSSQSLLASGNQNNYLAWHQQKPGKAPKMLIIWASTRVSGVPSRFSGSGSGTDFTLTISSLQPEDFATYYCQQSYSRPYTFGQGTKVEIKRTVAAPSVFIFPPSDEQLKSGTASVVCLLNNFYPREAKVQWKVDNALQSGNSQESVTEQDSKDSTYSLSSTLTLSKADYEKHKVYACEVTHQGLSSPVTKSFNRGEC
Turning to B1, the Akt phosphorylation entry in test [1] is on record as “lowest”. The c-Met degradation degree result in test [2] is on record as “lowest”. Besides, the “affinity for c-Met” value in test [3] is reported as “highest”.
